Measured values taken from the antibiotic and cytotoxicity screens of Wong et al. (2023).
This is one part of the list.

Tests used:
HSkMC = human skeletal muscle cells; experiment: cytotoxicity call (relative viability < 0.9); conditions: 10 µM
HepG2 = experiment: cytotoxicity call (relative viability < 0.9); conditions: 10 µM
S. aureus RN4220 = experiment: growth inhibition call (relative growth <= 0.2); conditions: 50 µM

COc1ccccc1NC(=O)Nc1ccc2c(c1)OC[C@@H](C)N(Cc1ccccc1C(=O)O)C[C@@H](C)[C@H](OC)CN(C)C2=O
inactive: cytotoxicity call (HSkMC) | cytotoxicity call (HepG2) | growth inhibition call (S. aureus RN4220)

C[C@@H]1CCCCO[C@H](CN(C)C)[C@H](C)CN([C@H](C)CO)C(=O)c2cc(NC(=O)CCCN(C)C)ccc2O1
inactive: cytotoxicity call (HSkMC) | cytotoxicity call (HepG2) | growth inhibition call (S. aureus RN4220)

C[C@@H]1CCCCO[C@@H](CN(C)C(=O)Nc2ccc3c(c2)OCO3)[C@H](C)CN([C@@H](C)CO)C(=O)c2cc(NS(=O)(=O)c3cccs3)ccc2O1
inactive: cytotoxicity call (HSkMC) | cytotoxicity call (HepG2) | growth inhibition call (S. aureus RN4220)

CN(C)Cc1ccc([C@@H](N)c2ccncc2)cc1
inactive: cytotoxicity call (HSkMC) | cytotoxicity call (HepG2) | growth inhibition call (S. aureus RN4220)

C[C@H]1CN([C@@H](C)CO)C(=O)Cc2cc(NC(=O)Nc3ccc(C(F)(F)F)cc3)ccc2O[C@H]1CN(C)C(=O)Nc1cccc2ccccc12
inactive: cytotoxicity call (HSkMC) | cytotoxicity call (HepG2) | growth inhibition call (S. aureus RN4220)

Cc1ccc(S(=O)(=O)N(C)C[C@@H]2OCCCC[C@@H](C)Oc3ccc(NS(C)(=O)=O)cc3C(=O)N([C@@H](C)CO)C[C@@H]2C)cc1
inactive: cytotoxicity call (HSkMC) | cytotoxicity call (HepG2) | growth inhibition call (S. aureus RN4220)

Cc1ccc(S(=O)(=O)N(C)C[C@@H]2Oc3ccc(NC(=O)Cn4cnnn4)cc3CC(=O)N([C@@H](C)CO)C[C@H]2C)cc1
inactive: cytotoxicity call (HSkMC) | cytotoxicity call (HepG2) | growth inhibition call (S. aureus RN4220)

Cc1noc(C)c1NC(=O)Nc1ccc2c(c1)C(=O)N([C@@H](C)CO)C[C@H](C)[C@H](CN(C)Cc1ccncc1)OCCCC[C@@H](C)O2
inactive: cytotoxicity call (HSkMC) | cytotoxicity call (HepG2) | growth inhibition call (S. aureus RN4220)

CC(C)NC(=O)N(C)C[C@H]1Oc2ccc(NC(=O)C3CCCCC3)cc2CC(=O)N([C@@H](C)CO)C[C@@H]1C
inactive: cytotoxicity call (HSkMC) | cytotoxicity call (HepG2) | growth inhibition call (S. aureus RN4220)

C[C@@H]1CCCCO[C@@H](CN(C)C(=O)Nc2cccc3ccccc23)[C@@H](C)CN([C@H](C)CO)C(=O)c2cc(NC(=O)Nc3ccccc3)ccc2O1
inactive: cytotoxicity call (HSkMC) | cytotoxicity call (HepG2) | growth inhibition call (S. aureus RN4220)

CC(C)NC(=O)N(C)C[C@@H]1OCCCC[C@H](C)Oc2ccc(NS(C)(=O)=O)cc2C(=O)N([C@@H](C)CO)C[C@H]1C
inactive: cytotoxicity call (HSkMC) | cytotoxicity call (HepG2) | growth inhibition call (S. aureus RN4220)

CN1CCN([C@H](CNC(=O)C(=O)NC[C@H]2CCCO2)c2ccc(N(C)C)cc2)CC1
inactive: cytotoxicity call (HSkMC) | cytotoxicity call (HepG2) | growth inhibition call (S. aureus RN4220)

CC(NC(=NC#N)Nc1ccncc1)C(C)(C)C (stereo unspecified)
inactive: cytotoxicity call (HSkMC) | cytotoxicity call (HepG2) | growth inhibition call (S. aureus RN4220)

COc1ccc(S(=O)(=O)N2C[C@H](O)COC[C@H]3O[C@H](CC(=O)NCCN4CCCCC4)CC[C@@H]32)cc1
inactive: cytotoxicity call (HSkMC) | cytotoxicity call (HepG2) | growth inhibition call (S. aureus RN4220)

CO[C@@H]1CN(C)C(=O)c2cc(NS(C)(=O)=O)ccc2OC[C@@H](C)N(C(=O)c2ccc3c(c2)OCO3)C[C@@H]1C
inactive: cytotoxicity call (HSkMC) | cytotoxicity call (HepG2) | growth inhibition call (S. aureus RN4220)

Cc1cc2cc(C)nn2c(N)n1
inactive: cytotoxicity call (HSkMC) | cytotoxicity call (HepG2) | growth inhibition call (S. aureus RN4220)

Cc1ccccc1-c1ccc2c(c1)O[C@H](CN(C)C(=O)Nc1ccc(C(F)(F)F)cc1)[C@H](C)CN([C@H](C)CO)S2(=O)=O
inactive: cytotoxicity call (HSkMC) | cytotoxicity call (HepG2) | growth inhibition call (S. aureus RN4220)

CC(C)NC(=O)Nc1ccc2c(c1)C(=O)N([C@H](C)CO)C[C@H](C)[C@@H](CN(C)S(=O)(=O)c1cn(C)cn1)OCCCC[C@@H](C)O2
inactive: cytotoxicity call (HSkMC) | cytotoxicity call (HepG2) | growth inhibition call (S. aureus RN4220)

C[C@@H]1CN([C@@H](C)CO)C(=O)Cc2cc(NS(C)(=O)=O)ccc2O[C@@H]1CN(C)Cc1ccc(C(=O)O)cc1
inactive: cytotoxicity call (HSkMC) | cytotoxicity call (HepG2) | growth inhibition call (S. aureus RN4220)

C[C@H]1CN([C@@H](C)CO)C(=O)c2cc(C#CC3(O)CCCC3)cnc2O[C@@H]1CN(C)C(=O)Cc1ccccc1
inactive: cytotoxicity call (HSkMC) | cytotoxicity call (HepG2) | growth inhibition call (S. aureus RN4220)

C[C@H](CO)N1C[C@H](C)[C@@H](CN(C)C(=O)Nc2cccc3ccccc23)Oc2c(NC(=O)Nc3ccc4c(c3)OCO4)cccc2C1=O
inactive: cytotoxicity call (HSkMC) | cytotoxicity call (HepG2) | growth inhibition call (S. aureus RN4220)

Cc1ccc(/C=N/c2ccccc2Sc2c(C)n[nH]c2C)cc1
inactive: cytotoxicity call (HSkMC) | cytotoxicity call (HepG2) | growth inhibition call (S. aureus RN4220)

O=c1c(-c2ccc(O)cc2)coc2cc(O[C@@H]3O[C@H](CO)[C@@H](O)[C@H](O)[C@H]3O)ccc12
inactive: cytotoxicity call (HSkMC) | cytotoxicity call (HepG2) | growth inhibition call (S. aureus RN4220)

COCCCNC(=O)[C@]1(Cc2ccccc2N=[N+]=[N-])N=C(c2ccc(OCCCO)cc2)O[C@@H]1c1ccccc1
inactive: cytotoxicity call (HSkMC) | cytotoxicity call (HepG2) | growth inhibition call (S. aureus RN4220)

C[C@@H]1CN([C@@H](C)CO)C(=O)c2cccc(NC(=O)C3CCOCC3)c2O[C@H]1CN(C)C(=O)Nc1ccc2c(c1)OCO2
inactive: cytotoxicity call (HSkMC) | cytotoxicity call (HepG2) | growth inhibition call (S. aureus RN4220)

O=C(C[C@@H]1C=C[C@H](NC(=O)Nc2ccc3c(c2)OCO3)[C@H](CO)O1)NCCCN1CCOCC1
inactive: cytotoxicity call (HSkMC) | cytotoxicity call (HepG2) | growth inhibition call (S. aureus RN4220)

C[C@H](CO)N1C[C@H](C)[C@@H](CN(C)C(=O)NC2CCCCC2)Oc2ccc(NC(=O)c3ccncc3)cc2CC1=O
inactive: cytotoxicity call (HSkMC) | cytotoxicity call (HepG2) | growth inhibition call (S. aureus RN4220)
